The list shows a part of the results. Read counts after selection give these values, which scatter widely. Scores sum up all selected molecules that hold the word; the word was not tested alone.
Test system: IMP3 RRM1-2
Experiment: 6-mer SELEX enrichment z-score vs GST control; IMP3 is the RNA-binding protein IGF2BP3; higher = more enriched by binding
Details: construct: RRM1-2 (1-163); SELEX round: R2
Description: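 SELEX-seq with GST-tagged IMP3 RRM1-2 (Met1-Asn163) and an N40 RNA pool, round 2. 6-mer enrichment z-score normalised to GST SELEX. RNA written as DNA (T = U).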

IMP3 RRM1-2, sequence (chain, as listed by the source): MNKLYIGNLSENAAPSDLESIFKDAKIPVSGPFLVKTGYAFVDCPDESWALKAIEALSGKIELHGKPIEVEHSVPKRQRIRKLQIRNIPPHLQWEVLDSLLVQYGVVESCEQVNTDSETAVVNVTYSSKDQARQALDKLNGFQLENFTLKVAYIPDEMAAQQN

Sequence | 6-mer SELEX enrichment z-score
TATGGC | 0.409
ACCTCC | -0.639
GGGGCG | 0.235
TCAAAA | -0.146
TCTAGG | 0.312
ATTTTT | 0.368
GTAGGA | 0.957
ACTTAA | -0.517
GCGAGG | -0.107
AGGGGT | 0.335
TCGTCT | 0.493
AAAGGA | -1.7
TGGGTT | 0.523
CGTGAA | -0.971
ACGCAG | 0.245
TTAAGT | 0.11
CACGAC | 1.27
GTAGAA | -0.559
GACACA | 2.05
GGACCA | 1.33

Sequence | 6-mer SELEX enrichment z-score
CGTATG | -0.098
CAGCAA | 0.95
TACAAG | 0.081
GCTAAA | -0.887
AACCGC | -1.05
GCTGAG | -0.135
TGATCG | -0.152
CGCCCC | -0.751
CAAACG | -1.06
GGTTGT | 0.496
TTGTAC | 0.149
AGATCT | -0.046
TCGCTG | 0.14
ACCAAG | -0.318
ATTGTT | 0.348
GAACTC | -0.544
TCGCTT | 0.344
GGACTT | -0.055
TGTTTG | 0.317
CTTTGT | 0.329

Target: IMP3 full-length (UniProt O00425)
Experiment: as above
Details: construct: FL IMP3 (1-579); SELEX round: R4
Description: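 SELEX-seq with GST-tagged full-length IMP3 and an N40 RNA pool, round 4. Each 6-mer is scored as an enrichment z-score of sequence tags containing it, normalised to the matching GST SELEX round. RNA written as DNA (T = U).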

UniProt O00425, sequence (O00425 whole entry): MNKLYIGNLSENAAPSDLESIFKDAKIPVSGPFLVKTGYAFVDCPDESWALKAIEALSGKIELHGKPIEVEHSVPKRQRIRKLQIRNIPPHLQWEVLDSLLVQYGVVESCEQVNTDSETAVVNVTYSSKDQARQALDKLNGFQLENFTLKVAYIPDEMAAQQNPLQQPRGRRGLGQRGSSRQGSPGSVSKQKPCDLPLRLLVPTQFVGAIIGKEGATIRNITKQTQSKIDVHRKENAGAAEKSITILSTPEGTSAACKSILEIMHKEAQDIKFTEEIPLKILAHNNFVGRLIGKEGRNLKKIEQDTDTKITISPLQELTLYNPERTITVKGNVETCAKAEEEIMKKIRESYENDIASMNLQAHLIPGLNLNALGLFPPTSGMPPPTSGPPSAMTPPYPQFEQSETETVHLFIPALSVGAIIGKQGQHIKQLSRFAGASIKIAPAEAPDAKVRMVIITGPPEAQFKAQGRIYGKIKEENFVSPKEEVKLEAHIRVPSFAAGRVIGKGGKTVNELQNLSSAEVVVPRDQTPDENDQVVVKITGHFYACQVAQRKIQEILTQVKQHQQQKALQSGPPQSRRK

Sequence | 6-mer SELEX enrichment z-score
TATGGC | 0.455
ACCTCC | -1.03
GGGGCG | 0.739
TCAAAA | -0.81
TCTAGG | 0.08
ATTTTT | 0.434
GTAGGA | -0.215
ACTTAA | -0.425
GCGAGG | 0.264
AGGGGT | 0.357
TCGTCT | 0.267
AAAGGA | -0.912
TGGGTT | 0.251
CGTGAA | -0.654
ACGCAG | 0.549
TTAAGT | -0.058
CACGAC | -0.018
GTAGAA | -0.903
GACACA | 1.87
GGACCA | -0.06

Sequence | 6-mer SELEX enrichment z-score
CGTATG | -0.547
CAGCAA | 1.24
TACAAG | 0.182
GCTAAA | -0.793
AACCGC | -0.685
GCTGAG | -0.277
TGATCG | -0.051
CGCCCC | -0.418
CAAACG | -1.16
GGTTGT | 0.056
TTGTAC | -0.181
AGATCT | -0.096
TCGCTG | 0.034
ACCAAG | -1.21
ATTGTT | 0.156
GAACTC | -0.767
TCGCTT | 0.207
GGACTT | -0.188
TGTTTG | -0.103
CTTTGT | -0.051

Test system: IMP3 KH1-2
Experiment: as above
Details: construct: KH1-2 (164-376); SELEX round: R4
Description: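 SELEX-seq with GST-tagged IMP3 KH1-2 (Pro164-Phe376) and an N40 RNA pool, round 4 (stringent 300/600 mM KCl washes). 6-mer z-score of sequence-tag enrichment normalised to the corresponding GST SELEX round; RNA k-mers written as DNA (T for U).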

IMP3 KH1-2, sequence (chain, as listed by the source): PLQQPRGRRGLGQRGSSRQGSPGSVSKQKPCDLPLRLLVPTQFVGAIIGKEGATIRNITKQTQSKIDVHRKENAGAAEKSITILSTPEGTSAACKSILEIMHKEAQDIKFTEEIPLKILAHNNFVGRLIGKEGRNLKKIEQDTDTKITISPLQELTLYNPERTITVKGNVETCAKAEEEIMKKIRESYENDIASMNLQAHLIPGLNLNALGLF

Sequence | 6-mer SELEX enrichment z-score
TATGGC | 0.663
ACCTCC | -0.573
GGGGCG | 1.51
TCAAAA | -0.798
TCTAGG | -0.059
ATTTTT | 1.29
GTAGGA | -0.375
ACTTAA | 0.709
GCGAGG | -0.18
AGGGGT | 0.722
TCGTCT | -0.062
AAAGGA | 0.084
TGGGTT | 0.269
CGTGAA | -0.391
ACGCAG | 0.035
TTAAGT | 0.212
CACGAC | -0.609
GTAGAA | -0.858
GACACA | 1.21
GGACCA | -0.427

Sequence | 6-mer SELEX enrichment z-score
CGTATG | -0.725
CAGCAA | 0.352
TACAAG | 0.33
GCTAAA | -0.364
AACCGC | 0.095
GCTGAG | -0.634
TGATCG | -0.266
CGCCCC | 0.379
CAAACG | -1.86
GGTTGT | 0.06
TTGTAC | -0.18
AGATCT | -0.042
TCGCTG | 0.019
ACCAAG | -1.38
ATTGTT | 0.354
GAACTC | -0.902
TCGCTT | 0.307
GGACTT | -0.106
TGTTTG | 0.016
CTTTGT | 0.098
